# Measurements from the supplement of paper PMC11417369.
# ± gives the standard deviation of the averaged measurements. This is one part of the list.
# System: PfAP2-LT AP2 domain (GST-tagged)
# Experiment: gcPBM binding intensity (ln(normalized median fluorescence intensity)); higher = stronger DNA binding
# Summary of the method: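 GST-fused DNA-binding domains of P. falciparum, expressed in E. coli, were applied at about 25 μg on average for 1 h to an Agilent 4 × 180k array of primer-extended double-stranded 36-bp intergenic genomic probes and negative controls. Binding intensity is the highest Masliner-normalised natural-log median intensity across replicate spots of either probe orientation, measured with Alexa488 anti-GST antibody and a 488 nm scan.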
row,Sequence,gcPBM binding intensity (ln)
1,TATATATATATATATGTGCACATATTTATATGTTTT,9.65 ± 0.071
2,GAAATTAAATGACATACACACTATATTATATATTTT [CACACA_site5693],8.81 ± 0.4
3,TAGATAGATTAAAATACATGCATATTATTAAAAAAT [TGCATGCA_site739],8.78 ± 0.41
4,CACCCATACACATACAAACACACATTCTATATATAT [CACACA_site1600],9.28 ± 0.46
5,AGCATAAAAATGATATGTACATATATATATATATAT [XGTACX_site2836],9.805 ± 0.035
6,CATACATACATACATACACACATACATATGTATATA [CACACA_site7216],9.38 ± 0.33
7,AATCATAAACATTATGCACACAAAAATAAAAAAAAA [CACACA_site8289],9.16 ± 0.45
8,TATCTTCAATGTGAAAGTACTTAAATTGTTATAAAA [XGTACX_site2586],8.38 ± 0.3
9,ATTTAATGTATTTTGCGTACGAATTATTTTATTTCA [XGTACX_site7331],9 ± 0.47
10,TATCAAAAAAAAAGTAGTACGATAATAGTTTCCCAA [XGTACX_site1812],8.73 ± 0.4
11,AAAAAAAAAACAAATGCATGTAATATAAGAATTACA [TGCATGCA_site908],8.74 ± 0.52
12,ACTTATAATATTTAGTGTACATATTGTGACTAATAC [XGTACX_site1508],8.87 ± 0.46
13,TATTTATAAATTTACACACACACATGTGAACATAAA [CACACA_site1909],9.29 ± 0.29
14,ATTTTAAAAAATTAATGTACTTAATTAATACTGAAA [XGTACX_site7702],8.14 ± 0.43
15,ATTTGTTCATTTGGTTGTACATAATTTATTTTTATA [XGTACX_site785],8.86 ± 0.44
16,ATTTCTTTAATATACACACACCAAAACAAAAAAAAA [CACACA_site6416],9.11 ± 0.38
17,TTTTCATTTTTTTTTTTTTTTTTTTTTCTTTTTTTT [CACACA_negctrl_site1312],8.43 ± 0.61
18,AAAAACAATCATTTTAAATAAAAATCTCTAATTTAA [GTGCAC_negctrl_site138],8.2 ± 0.45
19,ATATAGTTCGATATAGTTAGTATGAATTGAAAAATA [CACACA_negctrl_site1826],8.54 ± 0.46
20,TTTTTAAAATATTTAACACACAATTTTAATGCATAA [CACACA_site6036],8.53 ± 0.38
21,AAAAAAATAAAACACACACACAAAAAAATAAAAATA [CACACA_site465],9.56 ± 0.3
22,GTTGTGTAATTCGTAACACACATAAAATATATATAA [CACACA_site6059],9.13 ± 0.38

row,Sequence,gcPBM binding intensity (ln)
1,TTAATTATGGACAGGGTGCACATGAATAATAATACC,9.14 ± 0.54
2,TATATTATAATAAGACGTACAAGGATGTTAAAACTT [XGTACX_site5828],8.84 ± 0.38
3,ACCTAATTCAAATACAGTACATATACAATATATATA [XGTACX_site2779],8.76 ± 0.38
4,AAAAAATATTGAAGTACACACATTATAAACTTTTTT [CACACA_site5029],8.86 ± 0.49
5,AAAATTAAAAATTACTGTACGTATTAGAGAATAAAT [XGTACX_site2567],8.72 ± 0.36
6,TATATTGTATAAAAATGTACATGCAATAAATTTAGT [XGTACX_site5621],8.82 ± 0.38
7,AAAATATTAATTAATACATGCATATATATATATATA [TGCATGCA_site585],9.78 ± 0.29
8,TACATTAACGGATTATTTCTCAATACAACATCATTT [CACACA_negctrl_site981],8.62 ± 0.47
9,GTTTGTATGTCCAAATGTACATATGATTTTATGAAA [XGTACX_site6595],8.69 ± 0.31
10,ATAGTATACAGACACACACACACACCCATATATATA [CACACA_site1736],10.2 ± 0.29
11,AGGATATAAATATTCACACACACATGGAGATATATA [CACACA_site6317],9.54 ± 0.39
12,TTCTTAAATGTAAATGTATATGTATTAAAAAGAGAA [TGCATGCA_negctrl_site597],8.43 ± 0.35
13,TACTGTGTTTTGGTTGTACACACGCTACATTATATA [CACACA_site8863],9.32 ± 0.45
14,TTATAATATTAATGTGCACACAATTAAAATATTATA [CACACA_site2046],9.03 ± 0.38
15,ATGTTTTATATTTTTTTTTTGTTTGCTTGTTTCCTC [CACACA_negctrl_site870],8.89 ± 0.57
16,AAGGGAAATATTGAAACACACACGAACCCACGTATT [CACACA_site252],9.38 ± 0.25
17,ATACTAAATGAACACACACACATATATATATATAAT [CACACA_site4232],9.87 ± 0.23
18,TATAACTTTTTTATTACACACCTATGTAATATTATA [CACACA_site944],8.81 ± 0.42
19,AAATAAATATATAATACACACAAAAATATAAAATGG [CACACA_site5943],9.24 ± 0.34
20,AACAGACATAGAAACACACATACATACATACATACA [CACACA_site2479],9.53 ± 0.65
21,TTTTTTATATTAAATGAAGAATATACAAAATTTTAA [CACACA_negctrl_site558],7.96 ± 0.36
22,TTTTGTTAGTTTTTTTTCTTATATTACATTTTCACG [CACACA_negctrl_site1466],8.72 ± 0.55
